Experimental data taken from PubChem BioAssay AID686979 (National Center for Advancing Translational Sciences (NCATS), 2013).
Where “and” joins values, the source holds several entries; their conditions need not be identical. Identical values can stand only once. Screen size: about 420,000 compounds; about 50,000 (12%) were called active. The inconclusive results got no clear call from the source; some entries with a clear call stand among them for comparison. Calls come from the whole dose curve; as a rule, active = well fitted inhibition curve with a large enough effect; inconclusive = small, poorly fitted or top-dose-only effect; inactive = flat fitted curve, though single readings scatter. A potency beside an inconclusive call is a rough fit, not a confirmed value.

Assay: qHTS for Inhibitors of human tyrosyl-DNA phosphodiesterase 1 (TDP1): qHTS in cells in presence of CPT; note: nearly all actives have a fitted effect of over 55% in size
Details: chicken DT40 Tdp1-/-;hTDP1 cells + 20 nM CPT, ATP luminescence, 48 h; activity change, negative = growth inhibition: at 46.2 µM (top of the series) unless noted
Method in brief: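 Cell growth measured by CellTiter-Glo luminescence after a minimum 48 h, 37 C compound exposure with 20 nM CPT in Tdp1-knockout DT40 cells stably expressing hTDP1, seeded 400/well; qHTS titration format.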
% is set by controls: 0 for no effect and ±100 for the full control effect; potency is the fitted concentration of half-maximal effect; tags give direction and shape of the fitted curve.

**Q.** For `Clc1cc(Br)ccc1OCCOCCN1CCCC1`, which Potency is on record?
**A.** The Potency was inconclusive: 20.6 µM [inhibitor, single point].

**Q.** For `CC(C)(C)CC(=O)NCC(c1ccc2c(c1)OCO2)N1CCOCC1` (stereo not given), which Potency is on record?
**A.** The Potency was “inactive”.

**Q.** For `Cc1cccc(NC(c2ccccc2F)c2ccc3ccc(C)nc3c2O)n1` (stereo not given), which Potency is on record?
**A.** Its Potency is inconclusive: 25.9 µM [inhibitor, partial curve, poor fit].

**Q.** For `CN1[C@@H]2CC[C@H]1CC(NC(=O)n1c(=O)[nH]c3ccccc31)C2` (stereo not given in full), which Potency is on record?
**A.** Its Potency is “inactive”.

**Q.** With `COc1ccc(-c2nc3ccccc3s2)cc1NC(=O)c1ccc(F)cc1` as the compound, how does the Potency read?
**A.** Its Potency is inconclusive: 29.1 µM [inhibitor, single point].

**Q.** Which Potency does the source give for `COc1ccc(C(=O)NCC(c2ccc(N(C)C)cc2)N2CCc3ccccc32)cc1OC` (stereo not given) here?
**A.** Its Potency is active: 5.17 µM.

**Q.** Which Potency does the source give for `N[C@@H](C(=O)N[C@@H]1C(=O)N2C(C(=O)O)=C(Cl)CS[C@H]12)c1ccccc1` here?
**A.** The Potency was inconclusive: 18.4 µM [inhibitor, single point].

**Q.** For `Cc1cccc(C(C)C)c1NC(=O)c1ccc2c(c1)CCN2S(C)(=O)=O`, which Potency is on record?
**A.** The Potency was inconclusive: 16.4 µM [inhibitor, single point].

**Q.** For `N#C/C(=C\c1c(Cl)cccc1Cl)c1nc2ccccc2[nH]1`, which Potency is on record?
**A.** The Potency was inconclusive: 23.1 µM [inhibitor, partial curve, poor fit].

**Q.** Which Potency does the source give for `COC(=O)c1ccc(Oc2c(F)c(F)nc(N3CCOCC3)c2F)cc1` here?
**A.** The Potency was inconclusive: 8.2 µM [inhibitor, partial curve].

**Q.** Which Potency does the source give for `Cc1ccc(CNC(=O)CNC(=O)c2ccc(Br)o2)cc1` here?
**A.** Its Potency is “inactive”.

**Q.** Which Potency does the source give for `COC(=O)c1ccc2nc(C3CCCCC3)c(Cc3ccc(OC)cc3C)n2c1` here?
**A.** Its Potency is inconclusive: 16.4 µM [inhibitor, single point].

**Q.** Which Potency does the source give for `Cc1ccc(C)c(N2CCN(C(=O)c3ccc(Cl)c(NC4=NC5CS(=O)(=O)CC5S4)c3)CC2)c1` (stereo not given) here?
**A.** The Potency was inconclusive: 23.1 µM [inhibitor, single point].

**Q.** Which Potency does the source give for `Cc1cccc(Nc2nnc(-c3ccc(C)c(S(=O)(=O)N4CCN(C)CC4)c3)c3ccccc23)c1` here?
**A.** The Potency was active: 20.6 µM.

**Q.** Which Potency does the source give for `Cc1cc2nc(-c3cccc(Br)c3)c(CC(C)(C)C)n2c(C)c1Br` here?
**A.** The Potency was inconclusive: 29.1 µM [inhibitor, single point].

**Q.** Which Potency does the source give for `O=C1c2ccccc2C(=O)N1CCN1CCc2ccccc21` here?
**A.** The Potency was “inactive”.

**Q.** For `CC(=O)Nc1ccc(S(=O)(=O)N2CCN(c3cc(C(F)(F)F)ccn3)CC2)cc1`, which Potency is on record?
**A.** The Potency was active: 18.4 µM.

**Q.** For `COc1ccc(N(CC(=O)Nc2ccccc2OC)S(=O)(=O)c2ccc(OC)c(OC)c2)cc1`, which Potency is on record?
**A.** The Potency was “inactive”.

**Q.** Which Potency does the source give for `Fc1cc(Br)ccc1Nc1nc2ccccc2n2nnnc12` here?
**A.** The Potency was inconclusive: 23.1 µM [inhibitor, single point].

**Q.** For `Cn1cccc1C(=O)N1CCC2(CCCN(c3ccc(-c4ccccc4)cc3)C2)CC1`, which Potency is on record?
**A.** The Potency was inconclusive: 23.1 µM [inhibitor, single point].

**Q.** Which Potency does the source give for `O=C(O)c1c[nH]c(=O)c2ccccc12` here?
**A.** The Potency was “inactive”.

**Q.** For `CCOC(=O)c1cnc(SCc2nc(N)nc(Nc3ccccc3)n2)nc1N`, which Potency is on record?
**A.** Its Potency is active: 16.4 µM.

**Q.** With `CCC(=O)Nc1ccc(S(=O)(=O)NC[C@H]2O[C@@H](n3cc(C)c(=O)[nH]c3=O)C[C@@H]2O)cc1` as the compound, how does the Potency read?
**A.** The Potency was “inactive”.

**Q.** For `CCn1c(SCC(=O)N(C(C)C)C(C)C)nnc1-c1cc2ccccc2cc1O`, which Potency is on record?
**A.** Its Potency is active: 23.1 µM.

**Q.** Which Potency does the source give for `CCCCSc1nnc([C@H](C)NC(=O)OC(C)(C)C)o1` here?
**A.** The Potency was “inactive”.

**Q.** With `COC(=O)c1ccc(-c2ccc([C@H]3[C@H]4C=CC[C@@H](C)[C@@H]4C(=O)N3Cc3ccccc3)c(F)c2)cc1` as the compound, how does the Potency read?
**A.** The Potency was active: 6.51 µM.

**Q.** Which Potency does the source give for `CCOC(=O)c1cc2c(=O)n3ccccc3nc2n(CC2CCCO2)c1=NC(=O)/C=C/c1ccccc1` (stereo not given) here?
**A.** Its Potency is inconclusive: 29.1 µM [inhibitor, single point].

**Q.** With `CC1(C(=O)NCc2cccc3ccccc23)CCN1C(=O)Cc1ccc(-c2ccccc2)cc1` (stereo not given) as the compound, how does the Potency read?
**A.** The Potency was inconclusive: 23.1 µM [inhibitor, single point].

**Q.** With `Cc1ccc(-n2nc(-c3ccccc3)c3cnc4cc5c(cc4c32)OCO5)cc1C` as the compound, how does the Potency read?
**A.** Its Potency is “inactive”.

**Q.** With `COC(=O)C[C@H]1c2ccccc2S(=O)(=O)N1Cc1ccc(OC)cc1` as the compound, how does the Potency read?
**A.** The Potency was “inactive and inconclusive: 25.1 µM [inhibitor, single point]”.

**Q.** For `COc1ccc(C(C#N)CC(=O)c2ccc(OCc3ccccc3)c(OC)c2)cc1OC` (stereo not given), which Potency is on record?
**A.** Its Potency is inconclusive: 13 µM [inhibitor, single point].

**Q.** With `Cc1ccccc1C(=O)NCCNC(=O)c1ccco1` as the compound, how does the Potency read?
**A.** The Potency was “inactive”.

**Q.** For `COc1cc2ccccc2cc1C(=O)N(CCN(C)C)c1nc2c(OC)ccc(OC)c2s1`, which Potency is on record?
**A.** Its Potency is inconclusive: 20.6 µM [inhibitor, single point].

**Q.** For `COc1ccccc1CNC(=O)[C@H](CCSC)NC(=O)[C@@H]1Cc2ccccc2CN1`, which Potency is on record?
**A.** Its Potency is “inactive”.

**Q.** For `CCOC(=O)C1=C(C)NC(=O)NC1c1ccc(OCC(=O)OC)c(OC)c1` (stereo not given), which activity change, negative = growth inhibition is on record?
**A.** Its activity change, negative = growth inhibition is inconclusive: -35.6% [inhibitor].

**Q.** With `O=C1/C(=C/c2cccnc2)SC(=NCc2ccccc2)N1Cc1ccccc1` as the compound, how does the Potency read?
**A.** The Potency was “inactive”.

**Q.** For `COc1ccc(C(C)=O)cc1COC(=O)c1ccc2c(c1)OCO2`, which Potency is on record?
**A.** The Potency was “inactive”.

**Q.** Which Potency does the source give for `N#Cc1ccccc1Cn1cc(/C=N/Nc2ccc([N+](=O)[O-])cn2)c2ccccc21` here?
**A.** Its Potency is inconclusive: 25.9 µM [inhibitor, single point].

**Q.** For `CCn1c(CN2CCC(C)CC2)nc2cc(NC(=O)c3ccc([N+](=O)[O-])cc3)ccc21`, which Potency is on record?
**A.** The Potency was inconclusive: 29.1 µM [inhibitor, single point].

**Q.** With `OC(c1ccc(F)c(F)c1)c1nc(-c2cnc3ccccc3c2)cs1` (stereo not given) as the compound, how does the Potency read?
**A.** Its Potency is inconclusive: 29.1 µM [inhibitor, single point].

**Q.** Which Potency does the source give for `C(=N\N(c1ccccc1)c1ccccc1)/c1ccccn1` here?
**A.** The Potency was “inactive”.

**Q.** With `COc1ccc(C2SCC(=O)N2c2nnc(C34CC5CC(CC(C5)C3)C4)s2)cc1` (stereo not given) as the compound, how does the Potency read?
**A.** The Potency was inconclusive: 25.9 µM [inhibitor, single point].

**Q.** For `COc1cc(OC)c2c(-c3ccccc3)cc(=O)oc2c1C(CC(=O)N1CCOCC1)c1ccc(N(C)C)cc1` (stereo not given), which Potency is on record?
**A.** Its Potency is inconclusive: 25.9 µM [inhibitor, single point].

**Q.** For `Cn1cc(SCC(=O)NCc2ccc3c(c2)OCO3)c2ccccc21`, which Potency is on record?
**A.** Its Potency is “inactive”.

**Q.** With `CC(=O)Nc1cccc(NC(=O)CSc2ccc(-c3sc(-c4ccccc4)nc3C)nn2)c1` as the compound, how does the Potency read?
**A.** Its Potency is active: 9.2 µM.
